Laboratory results published in patent US11634486B2, “Anti-SEZ6L2 antibodies and antibody drug conjugates” (Bluefin BioMedicine, Inc., priority 2016, dated 2023).

Legend:
Experiment in all cases: Flow cytometry specificity on overexpressing 293 cells
Format in all cases: binding
Conditions in all cases: primary antibody 1 ug/ml, live cells on ice
[1] = target: T1, SEZ6L (293-SEZ6L) (Homo sapiens, UniProt Q9BYH1)
T1 construct: expressed in transfected cells; host or cells: HEK 293
T1 sequence (Q9BYH1 29-1024): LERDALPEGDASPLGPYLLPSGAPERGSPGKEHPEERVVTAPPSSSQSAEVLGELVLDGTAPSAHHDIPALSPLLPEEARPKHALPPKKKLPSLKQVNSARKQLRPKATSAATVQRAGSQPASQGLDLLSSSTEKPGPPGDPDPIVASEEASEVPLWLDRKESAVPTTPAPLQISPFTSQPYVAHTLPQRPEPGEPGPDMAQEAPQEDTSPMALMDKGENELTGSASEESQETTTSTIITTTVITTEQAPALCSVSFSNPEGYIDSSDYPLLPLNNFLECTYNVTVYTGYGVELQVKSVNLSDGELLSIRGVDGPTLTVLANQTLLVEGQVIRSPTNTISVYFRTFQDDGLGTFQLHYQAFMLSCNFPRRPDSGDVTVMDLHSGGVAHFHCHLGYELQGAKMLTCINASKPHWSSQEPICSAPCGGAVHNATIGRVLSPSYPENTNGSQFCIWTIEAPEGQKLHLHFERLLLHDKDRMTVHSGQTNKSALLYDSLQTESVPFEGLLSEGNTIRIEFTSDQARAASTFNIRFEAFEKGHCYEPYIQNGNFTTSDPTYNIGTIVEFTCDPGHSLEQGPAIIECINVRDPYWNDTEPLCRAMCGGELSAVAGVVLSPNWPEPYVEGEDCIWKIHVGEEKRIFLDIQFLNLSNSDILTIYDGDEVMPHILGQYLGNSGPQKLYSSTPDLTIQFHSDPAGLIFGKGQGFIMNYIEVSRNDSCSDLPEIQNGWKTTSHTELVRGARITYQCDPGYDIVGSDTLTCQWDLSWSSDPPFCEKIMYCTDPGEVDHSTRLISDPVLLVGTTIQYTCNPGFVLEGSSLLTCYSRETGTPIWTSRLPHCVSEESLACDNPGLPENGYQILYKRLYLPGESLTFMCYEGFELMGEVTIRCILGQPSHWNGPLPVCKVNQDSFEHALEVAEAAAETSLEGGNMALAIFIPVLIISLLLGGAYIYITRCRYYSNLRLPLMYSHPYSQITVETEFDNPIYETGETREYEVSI
Method: (§1) In order to assess whether SEZ6L2 antibody modulators immunospecifically associate with human SEZ6L2, and to determine whether the same modulators cross-react with SEZ6 and SEZ6L, flow cytometry was performed using a MACSquant™ as per the manufacturer's instructions. More particularly, modulators were tested for cross reactivity to cell lines that overexpress the human homologs of SEZ6 (293-SEZ6), SEZ6L (293-SEZ6L), and SEZ6L2 (293-SEZ6L2).
(§2) Briefly, staining for flow cytometry was performed in lx cold PBS with 0.5% BSA. Primary antibodies (1 ug/ml) were incubated with live cells on ice for one hour. After washing in the same buffer, cells were incubated with Alexa Fluro® 488-conjugated anti-human IgG secondary antibody @1:1000 (709-546-149, Jackson ImmunoResearch) on ice in the dark. After a 30 minute incubation, cells were washed in the same buffer and re-suspended in buffer plus propidium iodide (PI) to identify live cells. As a negative control, cells were incubated with secondary antibody alone. Acquisition of the data was performed on a MACSQuant® Flow Cytometer (Miltenyi Biotec) and analyzed with FlowJo software.

[2] = target: T2, SEZ6L2 (293-SEZ6L2) (Homo sapiens, UniProt Q6UXD5)
T2 construct: cDNA encoding the complete mature human SEZ6L2 protein containing a C-terminal FLAG tag was purchased from Origene; FLAG (C); host or cells: HEK 293
T2 sequence (Q6UXD5 28-910): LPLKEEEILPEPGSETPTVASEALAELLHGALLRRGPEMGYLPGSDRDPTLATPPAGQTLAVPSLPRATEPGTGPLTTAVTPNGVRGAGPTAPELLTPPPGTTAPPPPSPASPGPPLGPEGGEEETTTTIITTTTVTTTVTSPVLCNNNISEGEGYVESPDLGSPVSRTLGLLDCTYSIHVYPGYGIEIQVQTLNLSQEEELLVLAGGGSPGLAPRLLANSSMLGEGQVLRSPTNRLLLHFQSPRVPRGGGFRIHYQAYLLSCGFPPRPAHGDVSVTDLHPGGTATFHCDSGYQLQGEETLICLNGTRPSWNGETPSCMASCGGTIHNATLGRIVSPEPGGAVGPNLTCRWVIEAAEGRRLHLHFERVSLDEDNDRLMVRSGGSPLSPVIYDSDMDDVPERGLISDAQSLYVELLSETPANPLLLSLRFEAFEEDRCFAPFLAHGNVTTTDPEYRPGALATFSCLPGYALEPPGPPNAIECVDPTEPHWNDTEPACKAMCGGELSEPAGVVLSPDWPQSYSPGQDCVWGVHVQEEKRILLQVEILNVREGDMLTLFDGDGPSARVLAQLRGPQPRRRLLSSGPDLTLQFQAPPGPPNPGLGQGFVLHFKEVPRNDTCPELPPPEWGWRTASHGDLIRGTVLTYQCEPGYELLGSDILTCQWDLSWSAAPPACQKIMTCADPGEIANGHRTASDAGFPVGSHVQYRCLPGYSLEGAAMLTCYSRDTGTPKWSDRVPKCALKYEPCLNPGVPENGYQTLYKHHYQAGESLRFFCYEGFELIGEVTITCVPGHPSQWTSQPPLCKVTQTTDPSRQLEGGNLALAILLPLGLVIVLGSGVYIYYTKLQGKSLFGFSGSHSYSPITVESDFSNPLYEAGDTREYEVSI
Method: as §1, §2

[3] = target: T3, SEZ6 (293-SEZ6) (Homo sapiens, UniProt Q53EL9)
T3 construct: expressed in transfected cells; host or cells: HEK 293
T3 sequence (Q53EL9 20-994): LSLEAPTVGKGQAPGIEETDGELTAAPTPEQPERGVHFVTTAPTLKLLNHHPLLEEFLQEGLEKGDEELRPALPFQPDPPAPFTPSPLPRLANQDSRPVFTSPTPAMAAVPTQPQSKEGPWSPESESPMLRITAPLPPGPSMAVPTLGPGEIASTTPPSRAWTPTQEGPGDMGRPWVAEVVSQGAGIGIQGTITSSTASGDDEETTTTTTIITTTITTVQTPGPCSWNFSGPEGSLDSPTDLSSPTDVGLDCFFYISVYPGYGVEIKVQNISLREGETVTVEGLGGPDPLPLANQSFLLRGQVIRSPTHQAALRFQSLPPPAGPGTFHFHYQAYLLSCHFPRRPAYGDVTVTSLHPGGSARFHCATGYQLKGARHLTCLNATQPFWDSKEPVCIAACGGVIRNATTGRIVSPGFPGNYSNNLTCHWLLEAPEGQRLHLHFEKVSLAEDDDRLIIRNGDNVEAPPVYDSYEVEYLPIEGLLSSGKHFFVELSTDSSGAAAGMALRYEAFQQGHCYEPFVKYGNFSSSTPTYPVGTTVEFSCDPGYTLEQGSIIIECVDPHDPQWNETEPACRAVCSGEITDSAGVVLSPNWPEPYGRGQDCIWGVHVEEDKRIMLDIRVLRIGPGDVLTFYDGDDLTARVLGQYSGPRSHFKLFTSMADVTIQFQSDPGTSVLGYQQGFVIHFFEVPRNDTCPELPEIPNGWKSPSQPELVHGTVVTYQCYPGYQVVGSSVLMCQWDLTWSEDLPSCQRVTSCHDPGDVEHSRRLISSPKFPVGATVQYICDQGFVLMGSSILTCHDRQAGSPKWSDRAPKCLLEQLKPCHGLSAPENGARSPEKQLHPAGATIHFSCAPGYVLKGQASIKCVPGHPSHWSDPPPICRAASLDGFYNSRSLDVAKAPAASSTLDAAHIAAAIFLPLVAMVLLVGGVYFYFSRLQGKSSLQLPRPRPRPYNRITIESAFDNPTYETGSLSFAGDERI
Method: as §1, §2

B1: 106: human anti-SEZ6L2 antibody, VH SEQ ID NO: 90, VL SEQ ID NO: 94 (antibody, V domains shown)
VH: QVQLQESGPGLVKPSETLSLTCTVSGGSISSYYWSWIRQPPGKGLEWIGYIYNSGSTNYNPSLKSRVTISVDTSKNQFSLKLSSVTAADTAVYYCARRGDQGYWYFDLWGRGTLVTVSS
VL: EIVMTQSPATLSVSPGERATLSCRASQSVSSNLAWYQQKPGQAPRLLIYGASTRATGIPARFSGSGSGTEFTLTISSLQSEDFAVYYCQQYNNWPPTFGQGTKVEIK
binding to 293-SEZ6L cells by flow cytometry [1]: no detectable binding
binding to 293-SEZ6L2 cells by flow cytometry [2]: recognize a cell line that overexpresses SEZ6L2
binding to 293-SEZ6 cells by flow cytometry [3]: no detectable binding
